From PubChem BioAssay AID485281 (National Center for Advancing Translational Sciences (NCATS), 2010)
In all, about 350,000 compounds went through this assay and about 260 (0.074%) were called active. Inconclusive results, whose numbers are uncertain, are shown with a selection of clear calls. Calls come from the whole dose curve; as a rule, active = well fitted inhibition curve with a large enough effect; inconclusive = small, poorly fitted or top-dose-only effect; inactive = no such curve, though single readings can be large or run the other way. Potencies beside an inconclusive call are fits to weak or partial responses and may not hold up.

What follows are compounds tested against Ferritin light chain (Equus caballus) (UniProt P02791) (assay: qHTS Assay for Identification of Novel General Anesthetics). Settings: apoferritin/1-aminoanthracene competitive binding, fluorescence; activity change, negative = displacement: at 77.5 µM (top of the series).
How it was run: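 Read-out: endpoint 1-AMA fluorescence, excitation 380 nm and emission 535 nm, after compounds sit 10 min at room temperature with 10 uM horse-spleen apoferritin in 50% saturated 1-AMA/PBS. Values come from four-parameter Hill fits.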
% is set by controls: 0 for no effect and ±100 for the full control effect; potency is the fitted concentration of half-maximal effect; tags give direction and shape of the fitted curve.
Note: nearly all actives have a fitted effect of over 20% in size.

UniProt P02791, sequence (P02791 whole entry, looked up): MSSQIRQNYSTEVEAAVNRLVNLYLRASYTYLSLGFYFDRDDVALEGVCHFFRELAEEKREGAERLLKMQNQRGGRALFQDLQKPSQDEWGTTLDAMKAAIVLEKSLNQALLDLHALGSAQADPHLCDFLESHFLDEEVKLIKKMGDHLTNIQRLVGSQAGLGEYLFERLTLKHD

Row | SMILES | activity change, negative = displacement | Potency
1 | O=c1cc(C(F)(F)F)oc2c1ccc1ccccc12 | inactive: -4.66% | –
2 | Cc1ccc(S(=O)(=O)N2CCN(C(=O)CCC(=O)OCC(=O)Nc3cccc(C#N)c3)CC2)cc1 | – | inconclusive: 50.1 µM [inhibitor, single point]
3 | CCCc1c2ccccc2nc2ccccc12 | inactive: 108% | –
4 | CC(=O)N1N=C(c2ccc(Cl)cc2)OC1c1ccc(C(C)C)cc1 (centres undefined) | – | inconclusive: 14.1 µM [inhibitor, partial curve]
5 | Cc1ccc(C)c(N2CCN(S(=O)(=O)c3ccc4c(c3)NC(=O)CC(=O)N4)CC2)c1 | – | inconclusive: 20 µM [inhibitor, partial curve]
6 | COc1ccc(CCCc2nnc(SCC(=O)NN)o2)cc1 | – | inconclusive: 28.2 µM [inhibitor, partial curve]
7 | CCCn1c(SCC(=O)NC23CC4CC(CC(C4)C2)C3)n[nH]c1=O | – | inconclusive: 28.2 µM [inhibitor, partial curve]
8 | Cc1cc(C)c(OC2(c3ccccc3)OC(=O)c3ccccc32)c(C)c1 (centres undefined) | – | inconclusive: 28.2 µM [inhibitor, partial curve]
9 | O=C(NC(=S)Nc1ccccc1O)c1ccccc1Cl | – | inconclusive: 20 µM [inhibitor, partial curve]
10 | COC(=O)CSc1nc2ccc(NC(=O)CSc3nnnn3Cc3ccccc3)cc2s1 | – | inconclusive: 11.2 µM [inhibitor, full curve, poor fit]
11 | COc1ccccc1/C=C\C=N\n1c(-c2ccc(Cl)cc2Cl)n[nH]c1=S | – | inconclusive: 25.1 µM [inhibitor, single point]
12 | CCOC(=O)C(CSCC(=O)c1ccc(Br)cc1)NC(=O)OC(C)(C)C (centres undefined) | – | inconclusive: 39.8 µM [inhibitor, partial curve]
13 | COc1ccc(CNCc2cc3c(C(C)(C)C)nn(-c4ccccc4)c3[nH]c2=O)cc1 | – | inconclusive: 12.6 µM [inhibitor, partial curve]
14 | O=C1COc2ccc(C(=O)COC(=O)Cc3ccsc3)cc2N1 | – | inconclusive: 31.6 µM [inhibitor, partial curve]
15 | COc1ccccc1CNC(=O)c1c2c(nc3ccccc13)C(=O)N(C1CCCCC1)C2 | – | inconclusive: 8.91 µM [inhibitor, full curve]
16 | CCC(C)C(N)C(=O)NC(CC(N)=O)C(=O)NC(CC(C)C)C(=O)NC(CCCCN)C(=O)NC(C)C(=O)NC(CC(C)C)C(=O)NC(C)C(=O)NC(C)C(=O)NC(CC(C)C)C(=O)NC(C)C(=O)NC(CCCCN)C(=O)NC(CCCCN)C(=O)NC(C(=O)NC(CC(C)C)C(N)=O)C(C)CC (centres undefined) | – | inconclusive: 12.6 µM [inhibitor, partial curve]
17 | Cc1cc(C)c2nc(N(CCN(C)C)C(=O)c3ccc(S(=O)(=O)N(C)CC4CCCO4)cc3)sc2c1 (centres undefined) | – | inconclusive: 28.2 µM [inhibitor, single point]
18 | C=CCn1c(=O)[nH]c2cc(C(=O)N3CCN(c4cccc(Cl)c4)CC3)ccc2c1=O | – | inconclusive: 12.6 µM [inhibitor, partial curve]
19 | Cn1c(CNc2ccccc2O)nc2ccccc21 | – | inconclusive: 39.8 µM [inhibitor, partial curve]
20 | CC1=C(C)/C(=N\OS(=O)(=O)c2ccccc2)C=CC1=O | – | active: 28.2 µM
21 | COc1ccc(-c2csc(C)n2)cc1Br | – | inconclusive: 22.4 µM [inhibitor, partial curve]
22 | O=C(CCCn1c(=O)[nH]c2cc(Cl)ccc2c1=O)NC1CCCCCC1 | – | inconclusive: 3.98 µM [inhibitor, full curve, poor fit]

Row | SMILES | activity change, negative = displacement | Potency
23 | NC(=O)c1cnn(Cc2ccc(Cl)cc2)c1N | – | inconclusive: 31.6 µM [inhibitor, partial curve]
24 | COc1ccc(C(=O)/C=C/c2ccc(O)cc2)c(O)c1CC=C(C)C | – | inconclusive: 50.1 µM [inhibitor, single point]
25 | O=C1C2ON(c3ccccc3)C(c3ccncc3)C2C(=O)N1c1ccc(Br)cc1 (centres undefined) | – | inconclusive: 17.8 µM [inhibitor, partial curve]
26 | O=C(COC(=O)c1ccccc1NC(=O)c1ccco1)NCCC1=CCCCC1 | – | inconclusive: 56.2 µM [inhibitor, single point]
27 | Cc1cccc(-n2c(N)c(-c3nc4ccccc4n3C)c3nc4ccccc4nc32)c1 | inactive: 4.35% | –
28 | COc1ccc(OCC(=O)N/N=C2/C=C(C)CC2)cc1 | – | inconclusive: 35.5 µM [inhibitor, partial curve]
29 | CCCCCCSC1=C(C#N)C(c2ccc(O)cc2)CC(=O)N1 (centres undefined) | – | inconclusive: 25.1 µM [inhibitor, partial curve]
30 | CC[C@](N)(CCC(=O)O)C(=O)O | inactive: 18.5% | –
31 | OCCCCNCc1ccc(OCc2ccc(Cl)cc2)cc1 | – | inconclusive: 15.8 µM [inhibitor, partial curve]
32 | Cc1ccc(-c2nc(N/N=C/c3cccc([N+](=O)[O-])c3)c3ccccc3n2)cc1 | – | inconclusive: 20 µM [inhibitor, partial curve]
33 | C/C(=N\NC(=O)COc1ccc(C)cc1Br)c1cc([N+](=O)[O-])cs1 | – | inconclusive: 15.8 µM [inhibitor, partial curve]
34 | Cc1ccc2sc(N3CCN(C(=O)C4COc5ccccc5O4)CC3)nc2c1C (centres undefined) | inactive: 14.5% | –
35 | Cc1ccc(Cl)cc1NC(=O)c1oc2ccc(S(=O)(=O)N3CCC4(CC3)OCCO4)cc2c1C | inactive: -8.19% | –
36 | Cc1cc(C)cc(OCCn2nnc3ccccc32)c1 | – | inconclusive: 31.6 µM [inhibitor, single point]
37 | O=[N+]([O-])c1ccccc1S(=O)(=O)NCCc1ccncc1 | – | inconclusive: 35.5 µM [inhibitor, single point]
38 | CCc1ccc(NC(=O)CSC2=Nc3ccccc3C3=NC(CCC(=O)NCc4cccs4)C(=O)N23)cc1 (centres undefined) | – | inconclusive: 17.8 µM [inhibitor, partial curve]
39 | CCC1CCCCN1C(=O)CSc1nc(C)cc(C)n1 (centres undefined) | – | inconclusive: 50.1 µM [inhibitor, single point]
40 | Cc1ccc(S(=O)(=O)N2CCCSCC2)cc1 | – | inconclusive: 35.5 µM [inhibitor, single point]
41 | Cc1cc2cccc(C)c2nc1SCC(=O)NCC1CCCO1 (centres undefined) | – | inconclusive: 6.31 µM [inhibitor, partial curve]
42 | CC(C)c1ccc(NS(=O)(=O)c2ccc3[nH]cc(C(=O)NC4CCCCC4)c(=O)c3c2)cc1 | – | inconclusive: 12.6 µM [inhibitor, partial curve]
43 | CCOC(=O)c1c(C=O)c(C)n(Cc2ccc(C)cc2)c1C | – | inconclusive: 14.1 µM [inhibitor, partial curve]
44 | Cc1cccc(OCCn2nnc3sc4c(c3c2=O)CCCC4)c1 | – | inconclusive: 35.5 µM [inhibitor, partial curve]

Row | SMILES | activity change, negative = displacement | Potency
45 | Cc1ccc(NC(=O)CSc2nnc(-c3ccccc3C)o2)cc1C | – | inconclusive: 3.55 µM [inhibitor, partial curve]
46 | Cc1ccccc1NC(=O)C1(C)Cc2ccccc2C(=O)O1 (centres undefined) | inactive: -5% | –
47 | N/C(=N\OC(=O)CC1CCCCC1)c1ccccn1 | – | inconclusive: 22.4 µM [inhibitor, partial curve]
48 | CCCCNC(=O)c1sc2nc(C)cc(COC)c2c1-n1cccc1 | – | inconclusive: 35.5 µM [inhibitor, partial curve]
49 | C=C1N(c2cccc(Cl)c2)C(=O)OC1(C)C | – | inconclusive: 25.1 µM [inhibitor, partial curve]
50 | CC1Sc2ccc(S(=O)(=O)CCC(=O)NCc3ccc(Cl)cc3)cc2NC1=O (centres undefined) | inactive: -21.2% | –
51 | CCOC(=O)c1ccc(NC(=S)N(Cc2cccnc2)Cc2ccco2)cc1 | – | inconclusive: 22.4 µM [inhibitor, single point]
52 | O=C1COc2ccccc2N1Cc1ccccc1Cl | – | inconclusive: 7.94 µM [inhibitor, partial curve]
53 | N#Cc1ccc(S(=O)(=O)N2CCCN(c3ccc(C(F)(F)F)cn3)CC2)cc1 | inactive: -0.233% | –
54 | O=C(Nc1ccc(Cl)cc1Cl)c1cccc(N2C(=O)C=CC2=O)c1 | – | inconclusive: 14.1 µM [inhibitor, partial curve]
55 | Cc1ccccc1N1C(=O)CC(Sc2nnc(-c3ccccc3)o2)C1=O (centres undefined) | – | inconclusive: 25.1 µM [inhibitor, partial curve]
56 | CC(C)CN(C(=O)CCC(=O)OCC(=O)c1ccc(F)c(F)c1)c1c(N)n(CC(C)C)c(=O)[nH]c1=O | – | inconclusive: 25.1 µM [inhibitor, partial curve]
57 | COc1ccc(NC(=O)c2c(C)oc3c2CCCC3)cc1 | – | inconclusive: 39.8 µM [inhibitor, single point]
58 | O=S(=O)(NCc1ccc2c(c1)OCO2)c1c(F)cc(F)cc1Br | – | inconclusive: 50.1 µM [inhibitor, single point]
59 | CSc1ccc(CN(C)CC(=O)NC(=O)NC(C)(C)C)cc1 | – | inconclusive: 50.1 µM [inhibitor, single point]
60 | COc1ccc(OC)c(CNC(=O)Cn2nc(C)c3c(C)n(-c4ccccc4)nc3c2=O)c1 | – | inconclusive: 28.2 µM [inhibitor, single point]
61 | C=C(C)C(=O)OC1(C(F)(F)F)Oc2cc(C)ccc2NC1=O (centres undefined) | – | active: 17.8 µM
62 | CC(C)CN(CC(C)C)C(=O)Nc1ccccc1F | – | inconclusive: 25.1 µM [inhibitor, partial curve]
63 | Cc1ccc(/C=c2/sc3nnc(-c4ccccc4Cl)n3c2=O)o1 | – | inconclusive: 28.2 µM [inhibitor, partial curve]
64 | CN(C)c1ccc(C(=S)N2CCCCCC2)cc1 | – | inconclusive: 20 µM [inhibitor, partial curve]
